In all, about 150,000 compounds went through this assay and about 540 (0.36%) showed an effect of 50% or more. This is one part of the list.

This assay concerns Plasmodium falciparum. Put plainly: Primary screen in NF54 nanoGlo assay, in single point, at 2uM, 72h; a lower Z score goes with more inhibition. It counts as functional, Erythrocyte. The conditions noted are these: timepoint 72 hour.
Regarding `CC1CCCC(C)N1C(=O)c1cc(-c2cccs2)nc2ccccc12` (centres undefined), the % Inhibition – broadly, the relative decrease from the control value, in per cent – came out at 1% and the Z score is listed as -0.1.
On to `CN(C)Cc1cc(-c2nc3ccccc3s2)ccc1OCC(=O)NCc1cccc(Cl)c1`, for which the “% Inhibition” value is reported as -10% and the Z score was 1.16.
On to `O=C(NCCc1cnn(-c2ccccc2)c1)N1CC[C@H](N2CCOCC2)C1`, for which the “% Inhibition” value is -16% and the Z score amounted to 2.98.
As to `Cc1c(-c2nn(-c3nc(C4CC4)cc(C(F)(F)F)n3)c(-c3cnn(C)c3C)c2Cl)cnn1C`, the “% Inhibition” value is 76% and the Z score was -8.32.
For the compound `NC(=O)c1ccc(OCC2CCOCC2)nc1`, the “% Inhibition” value was -10% and the Z score is 1.98.
In the case of `CC(C)N(C)S(=O)(=O)NCc1csc(-c2ccn(C)n2)n1`, the “% Inhibition” value is -12% and the Z score was 1.37.
In the same order, the values of `Cc1nc(-c2cc3ccccc3nc2N2CCN(C(=O)c3cccs3)CC2)no1` are -10% and 1.45.
For the compound `O=C(C[C@@H]1N=C(O)c2ccccc2NC1=O)Nc1n[nH]c(CCC2CCCC2)n1`, the “% Inhibition” value is recorded as -3% and the Z score came out at 0.33.
For `CS(=O)(=O)NC[C@H]1COCCN1C(=O)Nc1cc(F)cc(F)c1F`, the “% Inhibition” value came to 5% and the Z score is reported as -0.62.
Take `Cc1c(CNCc2ccc(OC(C)C)cc2)c(C(=O)O)c(C)n1-c1ccc(Cl)cc1`: the “% Inhibition” value stood at 4% and the Z score is -0.58.
Consider `CC[C@@H]1Oc2ccc(NC(=O)Nc3cccc(Cl)c3)cc2CN(CCc2ccc(OC)c(OC)c2)C1=O`, for which the “% Inhibition” value was found to be 7% and the Z score is listed as -1.1.
For `CCN(CCC#N)C(=O)[C@@H](C)CCc1cccc(F)c1` the same measures were 0% and 0.
For `COc1ccc(C(=O)NC[C@@H](c2cccnc2)S(=O)(=O)c2ccc(Cl)cc2)cc1OC` the same measures were -4% and 0.61.
`O=C(CCn1cncn1)N1CCC[C@H](Cc2nc3ccccc3[nH]2)C1`: the “% Inhibition” value turned out to be 0% and the Z score is 0.04.
Take `CC(C(=O)N1CCc2ccccc21)N1CCOC(CN(C)C)C1` (centres undefined): the “% Inhibition” value is -6% and the Z score was 0.84.
In the same order, the values of `CC(NC1CC(=O)N(CC(F)(F)F)C1)c1cnn(C(C)C)c1` (centres undefined) are 4% and -0.72.
In the same order, the values of `COc1ccc(NC(=O)C2CCN(c3cc(C)nc4c(-c5ccc(Cl)cc5)c(C)nn34)CC2)cc1` are -7% and 0.92.
For `COC(=O)CN1CCC(Nc2cc(C)cc3cccnc23)CC1` the same measures were -17% and 1.43.
Consider `Cc1noc(C)c1CN(C)C(=O)c1cnc2ccccn2c1=O`, for which the “% Inhibition” value was -7% and the Z score was 1.33.
In the same order, the values of `COc1cccc(CN2CCCN(c3ccc(NC(=O)c4cccs4)cc3)C2=O)c1` are -1% and 0.19.
For `CC(C)(C)c1ccc(C(=O)N2CCCn3nnnc32)s1` the same measures were -11% and 1.27.
Take `Cc1cc(OCc2ccc(F)cc2)ccn1`: the “% Inhibition” value is reported as -11% and the Z score turned out to be 1.01.
In the same order, the values of `CCN(C(=O)COc1ccccc1Cl)[C@H](c1ccc(C)cc1)c1c[nH]c2ccccc12` are 8% and -1.13.
In the same order, the values of `Cc1csc(NC(=O)C2CCN(CCNS(C)(=O)=O)CC2)n1` are 5% and -1.02.
Regarding `COCc1noc([C@@H]2CN(Cc3ccccc3)CCO2)n1`, the “% Inhibition” value was 5% and the Z score is -0.72.
For the compound `CCC(C)C(=O)NC(C#N)c1ccccc1C` (centres undefined), the “% Inhibition” value is given as -3% and the Z score was 0.4.
For `COc1cccc(NC(=O)N2CCO[C@@H](CN(CC(C)C)C(=O)c3cccc(OC)c3)C2)c1` the same measures were -2% and 0.24.
For the compound `COc1cccc(S(=O)(=O)N2CCc3nnc([C@@H]4C[C@@H](O)CN4C)n3CC2)c1`, the “% Inhibition” value is recorded as -6% and the Z score was found to be 0.79.
Take `CN1CCN(CC(=O)N2CC[C@@H]3OCc4cccc(c4)Oc4ccc(cc4)CCC(=O)N(CCCO)CC(=O)N[C@H]3C2)C1=O`: the “% Inhibition” value was -7% and the Z score is reported as 1.26.
In the same order, the values of `CCCn1cnnc1CN(C)C(=O)c1ccc(-c2cc(N)nc(N)n2)cc1` are -15% and 1.95.
`Cc1ccsc1CN(Cc1ccc(F)cc1)C(=O)CN(C(C)C)S(=O)(=O)c1cccc2cccnc12`: the “% Inhibition” value worked out at 0% and the Z score was found to be 0.06.
`COc1cccc(C[C@@]2(C3CCN(Cc4cccc5nccnc45)CC3)NC(=O)N(C)C2=O)c1`: the “% Inhibition” value is reported as -8% and the Z score was 1.01.
For `Cc1nc(CNC(=O)c2c[nH]c(=O)cn2)oc1-c1ccc(Cl)cc1` the same measures were -30% and 3.47.
For `COCCn1nc([C@H]2CCCN(C(=O)c3ccccc3F)C2)n(C2CC2)c1=O` the same measures were -1% and 0.06.
For `Cc1ccc(CNc2ccc3[nH]nc(C(N)=O)c3c2)cc1C` the same measures were 25% and -2.85.
As for `CCCc1nc(C)c(CNC(=O)c2ccn(C(F)F)n2)s1`, the “% Inhibition” value is reported as -12% and the Z score came to 1.12.
Regarding `Cc1cccnc1CN(C)Cc1c(CO)cnc(C)c1O`, the “% Inhibition” value was -6% and the Z score came out at 0.95.
For `Cc1nc(CN2CC[C@H](c3ccnc(-c4cccc5cccnc45)c3)C2)co1` the same measures were 3% and -0.45.
Turning to `O=C(Nc1nc(C(=O)N2CCN(c3ncccn3)CC2)co1)c1ccsc1`, the “% Inhibition” value is recorded as -2% and the Z score is 0.31.
On to `Cn1ccnc1[C@H]1OCC[C@@H]1NC(=O)c1cnc2[nH]nnc2c1`, for which the “% Inhibition” value was 8% and the Z score was -0.96.
Consider `Cc1cc(C)c(CNCC2CCC(C(N)=O)O2)c(C)c1` (centres undefined), for which the “% Inhibition” value is listed as -4% and the Z score was determined as 0.35.
In the same order, the values of `Cc1nn(S(=O)(=O)c2ccc(F)cc2)c(C)c1S(=O)(=O)N1CCCCCC1` are -14% and 1.28.
With `CC(=O)NC(CC(=O)N1CCC[C@H]2C(=O)N(Cc3ccccc3)C(=O)[C@H]21)c1ccc(C)cc1` (some centres undefined), the “% Inhibition” value was -3% and the Z score is listed as 0.53.
Take `C[C@H]1Cc2cccc3c(O)c(C(=O)NCCCc4ccccc4)c(=O)n1c23`: the “% Inhibition” value was -2% and the Z score was 0.21.
For `O=c1[nH]ccn2c(CCNc3nc(C4CCCCC4)ns3)nnc12` the same measures were -6% and 0.73.
As for `Cc1ccn(CC(=O)N(Cc2ccccc2)C2CC2)c(=O)c1`, the “% Inhibition” value is recorded as -8% and the Z score is listed as 0.69.
Take `COCCn1cc(CNC[C@H]2CCCn3cc(C(C)(C)C)nc32)cn1`: the “% Inhibition” value is -8% and the Z score is on record as 0.69.
In the same order, the values of `COc1cc(Cl)c(C)cc1NC(=O)c1ccccc1NC(=O)CN(C)Cc1ccco1` are -5% and 0.77.
For `CC(C)c1cccc(S(=O)(=O)N2C[C@H]3OCCN(C)[C@H]3C2)c1` the same measures were -2% and 0.36.
In the same order, the values of `O=C(Nc1nc(=S)ss1)c1ccc(Cl)cc1` are -11% and 1.88.
With `COCc1nc(C(=O)OCC(=O)NCc2ccc3c(c2)OCO3)cs1`, the “% Inhibition” value was -1% and the Z score amounted to 0.08.
In the case of `Cc1noc(C)c1C[C@H](C)NS(=O)(=O)CC(C)(C)CC#N`, the “% Inhibition” value is -1% and the Z score was 0.07.
As for `COc1ccc(CC(=O)Nc2ccc(-n3cnnn3)c(OC)c2)cc1OC`, the “% Inhibition” value is listed as -5% and the Z score came to 0.56.
For the compound `CCc1nnc(CN(CC)Cc2cccnc2N)o1`, the “% Inhibition” value was -6% and the Z score was determined as 1.02.
For `COc1ccc(CNCCc2ncccc2C)cc1OC[C@@H](O)CN1CCCCCCC1` the same measures were -11% and 1.36.
For `CCc1cccc(NC(=O)CN2CCCO[C@@H](C)C2)c1` the same measures were -1% and 0.23.
As for `NC(=O)c1cc(OC2CCN(Cc3ccc(-c4ccn[nH]4)o3)CC2)ccn1`, the “% Inhibition” value is -1% and the Z score is listed as 0.06.
On to `COc1ccc2nc(-c3nc(C)cs3)[nH]c(=O)c2c1`, for which the “% Inhibition” value is listed as -14% and the Z score was determined as 2.04.
In the case of `CCc1ocnc1C(=O)N1C[C@@H]2c3ccc(OC)cc3OC[C@]2(CO)C1`, the “% Inhibition” value was -11% and the Z score was determined as 1.44.
In the same order, the values of `N#CCN(Cc1nnc(-c2ccc(Cl)cc2)o1)C1CCCC1` are -12% and 1.23.
Take `O=C1CCc2cc(S(=O)(=O)N3CCCc4ccccc43)cc3c2N1CCC3`: the “% Inhibition” value is given as -11% and the Z score amounted to 2.16.
As to `CCc1noc2nc(C)nc(N3CCC[C@H](C(=O)NCc4ccccc4C)C3)c12`, the “% Inhibition” value is 4% and the Z score is given as -0.55.
With `O=C(Nc1ccc2[nH]c(C3CC3)nc2c1)c1ccc(Br)o1`, the “% Inhibition” value was -17% and the Z score is reported as 1.83.
As for `O=C(NCC1CCOCC1)Nc1ccncn1`, the “% Inhibition” value is -3% and the Z score was found to be 0.26.
As to `CN(C)c1ccc(C2=Nc3cc(F)ccc3NC(c3ccc(C(C)(C)C)cc3)=N2)cc1`, the “% Inhibition” value is recorded as -4% and the Z score is given as 0.51.
On to `O=C(Cn1ccc2ccccc21)N1CC(c2nc(-c3ccco3)no2)C1`, for which the “% Inhibition” value was 4% and the Z score was -0.5.
In the same order, the values of `CC(C)c1ccc2c(c1)[C@@H](NC(=O)NCc1cccnc1)CC2` are -10% and 1.28.
In the same order, the values of `O=C(Nc1ccc2c(c1)OCO2)C1CCN(c2ccc(-c3cccs3)nn2)CC1` are 2% and -0.33.
For `COCC(=O)Nc1cc(C(=O)N[C@H]2CCOC2)c2c(c1)nc(C1CCC1)n2C` the same measures were -8% and 1.47.
Turning to `Cc1ccc2cc1Oc1cccc(c1)CO[C@H]1CCN(C(=O)CCn3cnnn3)C[C@H]1NC(=O)CN(C)C2=O`, the “% Inhibition” value is listed as -3% and the Z score was 0.58.
For `CCc1ncnc(N2CC(N(C)OC)C2)c1F` the same measures were -8% and 1.05.
For `Cc1noc(C)c1CCC(=O)NC(c1ccccn1)[C@H]1C[C@H](O)C1` (some centres undefined) the same measures were -6% and 0.98.
For `CC(C)c1ccc(NC(=O)C[C@@H]2N=C(NC(=N)Nc3ccccc3)NC2=O)cc1` the same measures were 5% and -0.65.
With `CC(C)(C)c1cccc(OCCNC(=O)N2C3CCC2CC(O)C3)c1` (centres undefined), the “% Inhibition” value amounted to 5% and the Z score is reported as -0.96.
For `CC1OC(=O)NC1c1nc(-c2ccc(Br)cc2)no1` (centres undefined) the same measures were -3% and 0.44.
As to `c1csc(CN2CCCc3ccccc32)c1`, the “% Inhibition” value is -1% and the Z score was 0.16.
For `COc1ccc(NC(=O)NC(C(F)(F)F)C(F)(F)F)cc1` the same measures were -7% and 1.
In the same order, the values of `CCN1CC2(CCN(c3cc(N)nc(N)n3)CC2)C[C@@H](c2ccccc2)C1=O` are -15% and 1.4.
In the same order, the values of `CCS(=O)(=O)C[C@H](C)N(C)c1ccc(C(F)(F)F)nn1` are -10% and 2.
Turning to `CNC(=O)[C@@H](NC(=O)c1c(F)cccc1F)C(C)(C)C`, the “% Inhibition” value was determined as 1% and the Z score was -0.2.
For the compound `OCC1(CCCc2ccccc2)CCN(Cc2ccc(O)c(Cl)c2)CC1`, the “% Inhibition” value is -14% and the Z score was 1.79.
For `C[C@]1(C(=O)Nc2nc(C(N)=O)cs2)CC1(Cl)Cl` the same measures were -13% and 1.45.
